Source: PMC12136788
Some of the results follow.

B1: chr18:33333173:33333394:-|CDS|ENSG00000166960|control|control|control (ssRNA)
RNA: GGGAGUUCUACAGUCCGACGAUCACAUUUUGAAAAACAAAAGACAGAGUUAGAAGAAGCAAAUGCAAAGAUUCAAGCAGACAUAGACUACAUGAAUGAACAUGGCCCUCUACUGGACUCUAAGCAGAAUCAGGAACUUCAAGACAACAGAGGAUUGAGCAUCA
B2: chrX:65741246:65741425:+|3pUTR|ENSG00000147065|msi1|FALSE|unique (ssRNA)
RNA: GGGAGUUCUACAGUCCGACGAUCUAUUAUGUACUCUACUGAUAUCUAAAUAUUGAUUUCUGCCUUCCUUGCUAAUGCACCAUUAGAAGAUAUUAGUCUUGGGGCAGGAUGAUUUUGGCCUCAUUACUUUACCACCCCCACACCCAACAGAGGAUUGAGCAUCA
B3: chr6:144094883:144095236:-|three_prime_utr|ENSG00000169976|control|control|control (ssRNA)
RNA: GGGAGUUCUACAGUCCGACGAUCUCCGCGUACAGAAGUGCUUGCCCGGGGAGUCCCGCCUGACCUGCCUUCAUGUGGACCCUUAGAACAGCACUGGGAGACCAGCAGGACUCCUGAGAACUGUGCUGGUGGAGAGGUCCUAGACAACAGAGGAUUGAGCAUCA
B4: chr16:74623592:74623693:-|3pUTR|ENSG00000168411|msi1|FALSE|unique (ssRNA)
RNA: GGGAGUUCUACAGUCCGACGAUCCCAUUAUUGUAUGUUGGAAAUUCUUAUUUUCUUUAUUUUCUGUGUGACUUUCUGGACCUUAGAGAGUGUCCUCUCAUCAUCUAGGAUGUGAGUGGGCAUCAAGCAUUUUCUGGGGAAUAUCAACAGAGGAUUGAGCAUCA
B5: chr16:366968:367674:-|three_prime_utr|ENSG00000086504|control|control|control (ssRNA)
RNA: GGGAGUUCUACAGUCCGACGAUCGACUCACUACAACCUCCACCUCCAGAGUUCAAGUGAUUGUCCUGUCUCAGCCUCCUGAGUAGCUGGGAUUACAGGCACCCCGCUAUCAUGUAUGGCUAAUUGUAUUUUAGUAGAGAAGGGCAACAGAGGAUUGAGCAUCA
B6: chr16:46956602:46956663:-|3pUTR|ENSG00000069345|msi1_unk|FALSE|overlapping (ssRNA)
RNA: GGGAGUUCUACAGUCCGACGAUCGUUUGUACAAUUUGUCCUGAAGCUUUGUGUUUGGCUGCACCUGCAUAAGCUGCUACAAAUAGAAUAAAGAAUUUCAUAGCCUGUAUCUAUCAUUUAGAUGCAUGGAAAAAAAUGGGCUUUCAACAGAGGAUUGAGCAUCA
B7: chr1:205715917:205716022:-|3pUTR|ENSG00000069275|msi1_unk|total|mutant (ssRNA)
RNA: GGGAGUUCUACAGUCCGACGAUCGAGACAGGCUCUGAAUAACCUUUGUUUUCUCCACUUUUUAUUGAUGAUUUAAAACACUCCCGUCUUCCCCUCAAAUCAUGCAUGCAAACCGGAGGACAGUGGUGGUGACUCAACUGGAUACAACAGAGGAUUGAGCAUCA
B8: chr15:71825291:71825392:-|3pUTR|ENSG00000066933|unk|total|mutant (ssRNA)
RNA: GGGAGUUCUACAGUCCGACGAUCUGAAGCUAUUUUUGUUAAUAUUCUGGUUACUGAAGUUUAUUGUAAAUAUGUAUGUACCGCCGGCAUAUUUCUUUUUAACCUUGUGCUUCCCUCCUUCCCAUGGAAUUUCUUCCCACAGAUCAACAGAGGAUUGAGCAUCA
B9: chr1:25360731:25360844:+|3pUTR|ENSG00000183726|unk|total|mutant (ssRNA)
RNA: GGGAGUUCUACAGUCCGACGAUCUUUUUUACUGCUCACUCCCAACCUUUUGUAAUGCCAUUUUCUAAACUUAUUUCUGAGUGCCGUCUCAGCUUAAAGUUGUGUAAUACUAAAAUCACGAGAACACCUAAACAACAACCAAAACAACAGAGGAUUGAGCAUCA
B10: chr11:130144177:130144243:+|3pUTR|ENSG00000084234|msi1_unk|FALSE|overlapping (ssRNA)
RNA: GGGAGUUCUACAGUCCGACGAUCAUGAGGGUGUCCGCUGCUGCUUUCCUUCGGAAUCCAGUGCUUCCACAGAGAUUAGCCUGUAGCUUAUAUUUGACAUUCUUCACUGUCUGUUGUUUACCUACCGUAGCUUUUUACCGUUCACAACAGAGGAUUGAGCAUCA
B11: chr1:110947961:110948399:-|CDS|ENSG00000121931|control|control|control (ssRNA)
RNA: GGGAGUUCUACAGUCCGACGAUCAAGUCAUUUCUUCAAUAAAAAUUAUACCGAAGAUAUUUUCCCAGUGACACCACCGGAGUUAGAAGAAACCAUUCGAGAUGAAAAAAUAAGAAGACUUAAGCAGGUGCUGAGAGAGAAAGACAACAGAGGAUUGAGCAUCA
B12: chr4:76160418:76160736:-|3pUTR|ENSG00000138760|msi1|total|mutant (ssRNA)
RNA: GGGAGUUCUACAGUCCGACGAUCAGUUCCUUCCUCAGUUUCAGUUCUUUCCAGUGUUUUGCCGCUCACUGUCACUCACUGAACCGAGAAACGUGUGCCCUAUACUUCCUGUGACAAUCAUUUUGCUGACAGAAUGAUGGAUGUCAACAGAGGAUUGAGCAUCA
B13: chr14:22920524:22921056:-|three_prime_utr|ENSG00000100462|control|control|control (ssRNA)
RNA: GGGAGUUCUACAGUCCGACGAUCCAGCACCAGUCUGUUCUGCUAUUCAUAACCCCACAGGCCGCUCAUAUACCAUUGGCCUCUAGCCCUGCGUGCCAAGUGUCCAGAGCCUUGGAAGCAGCUUCAGGUUCUGCUCCUGUAGUACAACAGAGGAUUGAGCAUCA
B14: chr9:35750248:35750349:+|CDS|ENSG00000107185|msi1|total|mutant (ssRNA)
RNA: GGGAGUUCUACAGUCCGACGAUCGGCCCUGGCCUGGGCCAGUGCCCAAAUCCACUGCCAGUUCCAUGCCAGUGAGAGUCGAGCCGCACUGCCUCCUCCUGACUCCCGUCAGCCAGAUGUCCAGCCCGACAGCCAGACUGUCUUCAACAGAGGAUUGAGCAUCA
B15: chr2:9584341:9584442:-|3pUTR|ENSG00000134308|msi1_unk|total|mutant (ssRNA)
RNA: GGGAGUUCUACAGUCCGACGAUCUUUCCAUGCAGAUUUGUGCACAUGUGAGAGGGUGUCCAGUUUGUCCCGUGAUUGUUAUUCCGAGAGUUGGACCACUAUUGUGUGUUGCUAAUCAUUGACUGCCGUCCCAAAAAAGCCUUGCAACAGAGGAUUGAGCAUCA
B16: chr11:78173774:78174554:-|CDS|ENSG00000188997|control|control|control (ssRNA)
RNA: GGGAGUUCUACAGUCCGACGAUCCGGGGGGAAGCUCUAUACAACCUCACUGGCGACCCUGACCAGCUUCCCUGACUCCAUGCUAGGCGCCAUGUUCAGCGGGAAGAUGCCCACCAAGAGGGACAGCCAGGGCAACUGCUUCAUCAACAGAGGAUUGAGCAUCA
B17: chr14:100883672:100883793:-|CDS|ENSG00000254656|unk|total|mutant (ssRNA)
RNA: GGGAGUUCUACAGUCCGACGAUCUCUAUUCCGGGUCCCUCAGCCGGAUUCCCCCGACAGUCUGAUUGUGCUCAUCCUGCAAACCGAAGAGAAGCUGGCAGAGAGAAGAGCUAUGCUCAGGCUGCCCCCCGAGGCCCGCCCCCGCAACAGAGGAUUGAGCAUCA
B18: ENSG00000070961:be:win_4101|3pUTR|ENSG00000070961|bound_else_gene|NA|bound_elsewhere_windowed (ssRNA)
RNA: GGGAGUUCUACAGUCCGACGAUCUACAGAUCUGUUUACAAGGUUUGUAGAUACUUUUUUUGUUCCUGUUCAUAGAUGGGAAGCUUCCUUAUAACUGAUGCAGAGAAAAAUUAGUCCUUCAAAUACUGCUGUAUUUUCAGGAAACAACAGAGGAUUGAGCAUCA
B19: chr2:210678210:210678332:+|3pUTR|ENSG00000021826|unk|total|mutant (ssRNA)
RNA: GGGAGUUCUACAGUCCGACGAUCUUCAUCCAUUUACUAAUACUGUAUUUUUGGUGGACCCGGCUUGCCUAUGUGCUUAUGUGCCGCUUUUUACUUUUUAUGGUGCUGAUUAAUGGUGAUCAAGGCCGGAAAAGUUGCUGUUCUCAACAGAGGAUUGAGCAUCA
B20: chr9:116187394:116187495:+|CDS|ENSG00000182752|msi1|total|mutant (ssRNA)
RNA: GGGAGUUCUACAGUCCGACGAUCUGGGGAACAAGUGGGUGGCAUAUUCAGCCCACUGACCCAGAAGUGCAAAGUGCUCAUGUCCGGGGGCAGUGCCCUGAAUCACAACUACCGGGGCUACAUCGAGCACUUCAGUCUGUGGAACAACAGAGGAUUGAGCAUCA
B21: ENSG00000070961:be:win_2401|CDS|ENSG00000070961|bound_else_gene|NA|bound_elsewhere_windowed (ssRNA)
RNA: GGGAGUUCUACAGUCCGACGAUCGAUGGCCCAGCACUAAAGAAAGCAGAUGUUGGAUUUGCAAUGGGUAUUGCUGGAACUGAUGUAGCUAAAGAAGCAUCCGAUAUUAUUCUCACAGAUGACAACUUUACAAGCAUUGUUAAACAACAGAGGAUUGAGCAUCA
B22: chr1:169124931:169125019:+|5pUTR_CDS|ENSG00000143153|msi1_unk|FALSE|overlapping (ssRNA)
RNA: GGGAGUUCUACAGUCCGACGAUCGAAAUUUCCUUUCGUCCUAAUGAUCCCAAGAGCUAUGAGGCAUAUGUACUGAACAUAGUUAGGUUCCUGGAAAAGUACAAAGAUUCAGCCCAGAGGGAUGACAUGAUUUUUGAAGAUUGUCAACAGAGGAUUGAGCAUCA

The binders below were run against T1, UNK ZnF1-6 (called full-length) (human, UniProt Q9C0B0 30-357) (assay: nsRBNS (natural sequence RNA bind-n-seq); RBNS binding buffer (assumed for nsRBNS): 25 mM Tris pH 7.5, 150 mM KCl, 3 mM MgCl2, 0.01% Triton X-100, 500 ug/ml BSA, 20 U/ml SUPERase-In, 4 C; UNK is unkempt and MSI1 is Musashi-1; names of the RNAs are library labels; protein concentration not given here; high values mean tight binding).
T1 sequence: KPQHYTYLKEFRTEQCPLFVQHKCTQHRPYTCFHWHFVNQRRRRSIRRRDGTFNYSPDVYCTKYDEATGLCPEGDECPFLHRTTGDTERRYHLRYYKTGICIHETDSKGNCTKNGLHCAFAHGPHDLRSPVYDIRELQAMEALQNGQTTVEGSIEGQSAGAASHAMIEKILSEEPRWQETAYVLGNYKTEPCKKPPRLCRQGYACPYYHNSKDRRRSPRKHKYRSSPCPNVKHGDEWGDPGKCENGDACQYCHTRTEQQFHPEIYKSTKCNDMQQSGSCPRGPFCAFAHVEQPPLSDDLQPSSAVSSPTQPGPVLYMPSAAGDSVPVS

| Binder | binding signal [enrichment R] |
| --- | --- |
| B1 | 0.467 |
| B2 | 1.06 |
| B3 | 0.735 |
| B4 | 0.572 |
| B5 | 0.897 |
| B6 | 1.25 |
| B7 | 0.724 |
| B8 | 0.473 |
| B9 | 0.572 |
| B10 | 1.56 |
| B11 | 0.797 |
| B12 | 0.368 |
| B13 | 0.677 |
| B14 | 0.76 |
| B15 | 0.533 |
| B16 | 0.754 |
| B17 | 0.755 |
| B18 | 0.517 |
| B19 | 0.353 |
| B20 | 0.573 |
| B21 | 0.531 |
| B22 | 0.437 |
